Experimental data taken from PubChem BioAssay AID1030 (National Center for Advancing Translational Sciences (NCATS), 2008).
Among all 220,000 compounds or so, about 16,000 (7.3%) were called active. The inconclusive results got no clear call from the source; some entries with a clear call stand among them for comparison. Calls follow the shape of the dose curve; as a rule, active = well fitted inhibition curve with a large enough effect (not every such curve was filed as active); inconclusive = small, poorly fitted or top-dose-only effect, or another doubt; inactive = no such curve, though single readings can be large or run the other way. Where the call is inconclusive, the potency comes from a doubtful curve fit.

Target: Aldehyde dehydrogenase 1A1 (Homo sapiens) (UniProt P00352)
Sequence of UniProt P00352 (P00352 whole entry, looked up): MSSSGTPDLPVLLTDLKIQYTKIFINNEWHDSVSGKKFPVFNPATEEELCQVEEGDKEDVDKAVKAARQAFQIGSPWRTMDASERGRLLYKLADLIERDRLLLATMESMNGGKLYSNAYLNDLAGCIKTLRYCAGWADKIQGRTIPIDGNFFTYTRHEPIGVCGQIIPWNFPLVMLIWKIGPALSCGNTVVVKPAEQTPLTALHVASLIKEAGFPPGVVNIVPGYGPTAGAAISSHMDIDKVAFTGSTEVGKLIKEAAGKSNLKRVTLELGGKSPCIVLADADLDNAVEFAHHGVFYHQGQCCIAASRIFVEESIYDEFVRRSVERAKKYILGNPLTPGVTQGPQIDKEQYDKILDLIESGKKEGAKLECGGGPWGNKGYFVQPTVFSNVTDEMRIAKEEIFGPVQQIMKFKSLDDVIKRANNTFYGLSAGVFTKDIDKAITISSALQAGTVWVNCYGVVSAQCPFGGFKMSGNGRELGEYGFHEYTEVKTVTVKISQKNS
Assay: qHTS Assay for Inhibitors of Aldehyde Dehydrogenase 1 (ALDH1A1)
Conditions: Purified ALDH1A1, NADH fluorescence, propionaldehyde substrate; series mostly up to 75.3 µM
Potency is read from the fitted curve at half-maximal effect; tags tell the direction and shape of the fitted curve.

Potency, active:
CC1Cc2ccccc2N1C(=O)CSc1nnnn1C1CCCC1 (centres undefined) 2.51 µM, COc1ccc(CC(=O)N2CC(=O)N(CCc3ccccc3)C(=O)C2)cc1 10 µM, Cc1cccc(NC(=O)CSc2nc(NS(=O)(=O)c3ccccc3)cc(=O)[nH]2)c1 28.2 µM, O=C(Oc1ccc([N+](=O)[O-])cc1)c1ccc(Cl)c(S(=O)(=O)N2CCCCC2)c1 12.6 µM, CS(=O)(=O)N(Cc1ccc(C(=O)NN=C2CCCC2)cc1)c1ccccc1 1.26 µM, CCC(C)(C)NC(=O)c1ccc2c(c1)S(=O)(=O)c1ccccc1C2=O 3.55 µM, Cc1ccc(-c2nn3nnnc3c3ccccc23)cc1C 7.08 µM, Cc1sc2nc(CC(N)=O)[nH]c(=O)c2c1-c1ccccc1 7.08 µM, CCSC1=NC2(CCCCC2)Nc2sc3c(c21)CCCC3 7.08 µM, CCOC(=O)c1c(NC(=O)c2ccncc2)sc(C)c1C 12.6 µM, COc1ccc(N2CCN(C(=O)c3ccc(C)cc3)CC2)c([N+](=O)[O-])c1 11.2 µM, COc1ccc(C=O)cc1COc1ccc(C)cc1[N+](=O)[O-] 10 µM

Potency, inactive:
COc1ccccc1CNc1ncncc1-c1ccccc1C(F)(F)F, COc1ccc(-c2nnn(CC(=O)N(Cc3ccccc3Cl)C(C(=O)NCC3CCCO3)c3ccco3)n2)cc1OC (centres undefined), Cc1cnc(C(=O)OCC(=O)c2cc(C)n(C)c2C)cn1, O=C(COC(=O)c1cccs1)NCCC1=CCCCC1, OCC1NCC(O)C(O)C1O (centres undefined), Cc1ccccc1C(=O)NC1CCN(CC(=O)NCc2cccs2)CC1, O=C(NC(Cc1ccc2c(c1)OCO2)C(=O)N1CCCC1C(=O)O)c1ccccc1 (centres undefined), CCOc1ccc(S(=O)(=O)NCCC(=O)OCC(=O)c2ccc[nH]2)cc1, CCCC(=O)c1cc(-c2nc3ccccc3n2C)n(C)c1, CCCOc1ccc(/C=N/NC(=O)CSCc2ccc([N+](=O)[O-])cc2)cc1OCC, CCOC(=O)CNC(=O)O[C@@H]1C(=O)c2ccc(OC)cc2O[C@H]1c1ccc2c(c1)OCO2, Cc1c(Br)c([N+](=O)[O-])nn1CC(=O)NCc1ccccc1, C/C(=N\NC(=O)c1ccccc1O)c1ccc(Br)s1, COC(=O)CCC(=O)N(CCN(C(=O)CCC(=O)OC)c1ccccc1)c1ccccc1, O=C(Nc1ccc(O)c2c(=O)cc(-c3ccccc3Cl)oc12)c1ccc(Br)cc1, O=C(COC(=O)c1ccc(Cl)c([N+](=O)[O-])c1)Nc1ccccc1OC(F)F, C=CCn1c(SCc2ccc(Cl)cc2)nc2cc(C(=O)N3CCC(C(N)=O)CC3)ccc2c1=O, CCNc1nc(NC#N)nc(SCC(=O)OCC)n1, Cc1ccccc1NC(=O)c1ccc(CN(c2ccccc2)S(=O)(=O)c2ccccc2)cc1, O=C(Nc1cccnc1)c1ccc(-c2ccccc2)cc1

Potency, inconclusive:
CN(C)c1ccc(/C=N/NC(=S)NCc2ccco2)cc1 31.6 µM [inhibitor, partial curve], CCCn1c(O)c2ccc(C(=O)N=NC(=O)c3cccnc3)cc2c1O 10 µM [inhibitor, partial curve], CCCOC(=O)c1ccc(OCC(O)CN2CCN(C(=O)c3ccccc3)CC2)cc1 (centres undefined) 25.1 µM [inhibitor, partial curve], Cc1cc(=O)oc2ccc(OCC(=O)NCc3ccco3)cc12 25.1 µM [inhibitor, single point], CSc1nsc(SC)c1C(=O)N1CCN(S(=O)(=O)c2ccc(C)cc2)C1C(C)C (centres undefined) 39.8 µM [inhibitor, single point], O=C(c1ccc(N2CCCC2)c([N+](=O)[O-])c1)N1CCN(CCO)CC1 39.8 µM [inhibitor, single point], CCOC(=O)c1c(-c2ccccc2)n(C)c2ccc(O)cc12 28.2 µM [inhibitor, partial curve], CCCCc1nnc(NC(=O)C=C(C)C)s1 8.91 µM [inhibitor, single point], CCNC(=S)NS(=O)(=O)c1ccc(F)cc1 35.5 µM [inhibitor, single point], CCC(C)NC(=O)C1CN(S(=O)(=O)c2ccccc2)CCN1S(=O)(=O)c1ccccc1 (centres undefined) 35.5 µM [inhibitor, single point], COc1ccc2nc(NCCNC(=S)NCCCN3CCOCC3)c(C#N)cc2c1 39.8 µM [inhibitor, single point], COc1ccccc1-c1c(C)oc2c(CN3CCN(C)CC3)c(O)ccc2c1=O 25.1 µM [inhibitor, partial curve], COc1ccc2nc(C)c(C(=O)NN)cc2c1 2.51 µM [inhibitor, full curve, poor fit], COc1cc(C(=O)NCc2ccc(-n3cccc3)cc2)cc(OC)c1OC 2.24 µM [inhibitor, partial curve], O=C(NNc1ccc([N+](=O)[O-])cc1)C12CC3CC(CC(C3)C1)C2 44.7 µM [inhibitor, single point], O=C(O)CCCC(=O)N1CCc2cc(S(=O)(=O)N3CCc4ccccc43)ccc21 44.7 µM [inhibitor, single point], CCOc1ccc(NC(=O)CC2C(=O)N(C)C(=S)N2Cc2ccc3c(c2)OCO3)cc1 (centres undefined) 31.6 µM [inhibitor, single point], CCc1ccc(/C=C2\SC(=S)N(CCC(=O)N3CCN(C)CC3)C2=O)cc1 3.16 µM [inhibitor, full curve], COc1ccc(C(=O)C2C3C4COC(O4)C(=O)C3C3C=Cc4ccccc4N32)c(OC)c1 (centres undefined) 28.2 µM [inhibitor, single point], CCC(=O)N(Cc1cc2ccccc2[nH]c1=O)c1ccc(OC)cc1 22.4 µM [inhibitor, partial curve], C=CCOc1ccccc1CNc1ccccc1C 35.5 µM [inhibitor, single point], CCS(=O)(=O)c1nnnn1-c1ccccc1S(C)(=O)=O 35.5 µM [inhibitor, single point], Cc1nc2cnc(N3CCNCC3)nc2n(CCC#N)c1=O 28.2 µM [inhibitor, partial curve], O=C(COc1ccc(Cl)cc1Cl)Nc1nc2n(n1)C(c1ccccc1)CC(=O)N2 (centres undefined) 25.1 µM [inhibitor, single point], O=C(Nc1ccc2oc(-c3ccccc3)nc2c1)c1cccs1 39.8 µM [inhibitor, single point], O=C(COc1ccccc1)NCCSCc1ccco1 23.8 µM [inhibitor, single point], Cc1ccc(S(=O)(=O)NCCNC(=O)c2cc(OCC(F)(F)F)ccc2OCC(F)(F)F)cc1 31.6 µM [inhibitor, partial curve], Cc1ccc2[nH]c3c(c2c1)CN(C(=O)CN1CCN(Cc2ccc4c(c2)OCO4)CC1)CC3 28.2 µM [inhibitor, single point], Cc1ccc(C)c([C@@H]2NC(=O)c3ccccc3N2)c1 3.98 µM [inhibitor, single point], O=C(NNc1ccc([N+](=O)[O-])cc1)c1ccccc1F 25.1 µM [inhibitor, single point], O=C(CC(Sc1ccccc1)c1cccs1)c1ccco1 (centres undefined) 39.8 µM [inhibitor, single point], CSc1nsc(SC)c1NC(=O)OCC1CCCO1 (centres undefined) 39.8 µM [inhibitor, single point], CCC(C)(C)n1nnnc1C(c1ccc(O)cc1)N1CCc2ccccc2C1 (centres undefined) 28.2 µM [inhibitor, single point], COc1ccc(-c2cn3cc(C)ccc3n2)cc1OC 28.2 µM [inhibitor, partial curve], N#Cc1c2n(c3c(-c4ccccc4)ncnc13)CCC2 39.8 µM [inhibitor, single point], CCCc1cc(-c2n[nH]c(=S)n2-c2cccc(C)c2)cs1 3.16 µM [inhibitor, partial curve, poor fit], C/C(=C\C(=O)c1ccc(C)o1)Nc1ccc(C(=O)O)cc1C 37.7 µM [inhibitor, single point], C=CCNC(=O)c1c(Br)cnn1-c1ccc(C)cc1 17.8 µM [inhibitor, partial curve], CN(c1cccc(NC(=O)c2ccc(N(C)S(=O)(=O)c3ccccc3)cc2)c1)S(C)(=O)=O 37.7 µM [inhibitor, single point], NC(N)=Nc1nc2cc([N+](=O)[O-])ccc2o1 39.8 µM [inhibitor, single point], COc1cc(OC)cc(-c2cc3nc(C)c(CCC(=O)Nc4nc(C)cs4)c(C)n3n2)c1 35.5 µM [inhibitor, single point], O=C(Nc1cccc(F)c1)c1ccc(Cn2cc([N+](=O)[O-])cn2)o1 31.6 µM [inhibitor, single point]
